Test system: MAPK pathway converging on Elk1 (GAL4-Elk1 fusion)
Test: Luciferase reporter assay in RCLH-Elk1 stable reporter cells treated with extracellular stimuli
Settings: screening for activators

SMILES	Activator of MAPK pathways leading to Elk1 activation (luciferase expression, FIG. 10)
COc1ccc(C[C@H]2NC[C@H](O)[C@H]2OC(C)=O)cc1 [anisomycin]	are not
CCCCCCCCCCCCCC(=O)O[C@@H]1[C@@H](C)[C@@]2(O)[C@@H](C=C(CO)C[C@]3(O)C(=O)C(C)=C[C@@H]23)[C@@H]2C(C)(C)[C@]12OC(C)=O [PMA, phorbol 12-myristate 13-acetate]	activators
